The results in this text go back to PubChem BioAssay AID1963576 (National Center for Advancing Translational Sciences (NCATS), 2024).

Among all 46,000 compounds or so, about 60 (0.1%) were called active. Inconclusive results (about 3%) are left out. Calls follow the shape of the dose curve; as a rule, active = well fitted inhibition curve with a large enough effect; inconclusive = small, poorly fitted or top-dose-only effect; inactive = no such curve, though single readings can be large or run the other way. This is one part of the list.

A short description of this test: Primary qHTS assay for Inhibitors of ovarian cancer metastasis using an organotypic tumor microenvironment (TME) model. Also: nearly all actives have a fitted effect of over 65% in size.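 As to activity change, negative = inhibition: plate controls were DMSO wells for no effect and tomatine positive control wells for full effect.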 The settings on record: SKOV3ip1-GFP adhesion/invasion on 3D omental model, fluorescence; series mostly up to 45.8 µM; activity change, negative = inhibition: at the top concentration. A digest of the protocol: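 qHTS, 4-pt dose (0.36-46 umol/L); SKOV3ip1-GFP, 1,200 cells/well, no FBS; primary omental fibroblast/mesothelial co-culture 48 h pre-grown; 2 h RT + 16 h 37 C; PBS wash, 4% PFA; GFP count 488/509 nm.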
For `CC(=O)c1ccc(NC(=O)C2CCCN(S(=O)(=O)c3cn(C)cn3)C2)cc1` (stereo not given), the “activity change, negative = inhibition” value was inactive: 0.0512%.

On to `CCc1cccc(C)c1Nc1c(-c2ccc(N3CCOCC3)cc2)nc2ncccn12`, for which the “activity change, negative = inhibition” value was inactive: 1.14%.

For the molecule `CCCc1nn(C)c2c(=O)[nH]c(-c3cc(S(=O)(=O)N4CCN(C)CC4)ccc3OCC)nc12`, the “activity change, negative = inhibition” value is inactive: -10.6%.

For the molecule `O=C(Nc1ccccc1C(F)(F)F)c1noc2c1CCCCC2`, the molecule was classed as inactive. In the case of `COc1ccc(-n2nc3c(c2NC(=O)C(=O)N2CCN(C)CC2)CSC3)cc1`, the “activity change, negative = inhibition” value is inactive: -0.467%. Still for that read-out and setting: to `O=C(Cn1c(=O)n(-c2ccc(F)cc2)c(=O)c2sccc21)Nc1cccc(C(F)(F)F)c1` belongs inactive: -4.61%; to `Cc1cc(C)cc(OCC(=O)Nc2cccc(-c3nc4ccccc4[nH]3)c2)c1`, inactive: -28.7%; to `CCOC(=O)c1cc2c(=O)n3ccccc3nc2n(Cc2ccco2)c1=NC(=O)c1ccccc1OC`, inactive: 6.91%. As to `Cc1c2cnn(CC(=O)Nc3ccc(F)cc3F)c(=O)c2c(C)n1Cc1cccc(Cl)c1`, the “activity change, negative = inhibition” value was inactive: 9.7%. For `CC(C)NC(=O)c1cc2c(Cl)nc3ccccc3c2s1`, the result was inactive. As to `CCC(=O)N1CCc2cc(S(=O)(=O)CCC(=O)NCc3ccc(F)cc3)ccc21`, the molecule was classed as inactive.

`COc1cccc(CNC(=O)Cn2c(=O)oc3cc(S(=O)(=O)N4CCC(C)CC4)ccc32)c1`: the molecule was called inactive.

For the molecule `Cc1ccc(-n2nc3c(=O)n(C(C)C(=O)O)nc(C)c3c2C)cc1` (stereo not given), the call was inactive. On the same count and under the same terms, to `Cc1ccc(Cl)cc1NC(=O)Cn1c(=O)n(CCC(=O)N2CCc3ccccc3C2)c(=O)c2ccccc21` belongs “inactive”.

Turning to `CN(C[C@@H]1COCCO1)S(=O)(=O)Nc1ccc2ccc3ncc(-c4cnn(C)c4)cc3c(=O)c2c1`, the “activity change, negative = inhibition” value is inactive: 26.9%. Turning to `CCOc1ccc(NC(=O)Cn2cc(C(=O)c3ccc(C)c(C)c3)c(=O)c3cc(F)ccc32)cc1`, the call was inactive. The same measure, in the same setting: under `Cc1cc(O)c(C(=O)c2cnc3c(c2)COc2ccccc2-3)cc1Cl` stands “inactive”; under `Cc1ccc(CNC(=O)c2ccc3c(c2)N(Cc2cccc(Cl)c2)C(=O)CS3)cc1`, “inactive”. Turning to `CCOc1ccc2nc(N3CCCC(C(=O)NCCc4ccc(SC)cc4)C3)sc2c1` (stereo not given), the “activity change, negative = inhibition” value was inactive: 39.7%. Same read-out and setting: under `COc1cc(NC(=O)CSc2nc3nc(C)c(Cc4ccccc4)c(C)n3n2)cc(OC)c1` stands inactive: -3.46%. Same read-out and setting: to `Cc1ccc(C)c(NC(=O)CSc2nnc(C)n3c2cc2occc23)c1` belongs inactive: -7%.

`COc1ccc(OC)c(-c2noc(N3CCN(c4cc(Cl)ccc4C)CC3)n2)c1`: the molecule was classed as inactive. As to `Cn1c(=O)c2sccc2n2c(CCC(=O)Nc3ccc(F)cc3)nnc12`, the “activity change, negative = inhibition” value is inactive: -4.61%. With `COc1cccc(C(=O)c2sc(Nc3ccc(F)c(Cl)c3)nc2N)c1`, the “activity change, negative = inhibition” value was inactive: -7.28%. The same measure, in the same setting: under `Cc1cc(C)cc(NC(=O)C(=O)NCC(c2cccnc2)N2CCc3ccccc32)c1` (stereo not given) stands inactive: 11.5%.

In the case of `CCOC(=O)c1ccc(CN(Cc2ccc(Br)cc2)S(=O)(=O)c2cccc(C(F)(F)F)c2)cc1`, the “activity change, negative = inhibition” value is inactive: -5.1%. The same measure, in the same setting: under `COc1ccc2c(c1)c(=O)c(C(=O)c1ccc(C)cc1)cn2Cc1ccccc1F` stands inactive: 1.86%.

For `CCC(C(=O)OC)n1nnc2sc(-c3ccccc3)cc2c1=O` (stereo not given), the “activity change, negative = inhibition” value is inactive: 2.07%. In the case of `COc1ccc(C2c3c(-c4ccccc4O)n[nH]c3C(=O)N2CCc2ccccc2)cc1` (stereo not given), the molecule was classed as inactive. Still for that read-out and setting: to `COC(=O)c1ccc(Cl)cc1NC(=O)Nc1nnc(N(C)Cc2ccccc2)s1` belongs “inactive”. On the same count and under the same terms, to `COc1ccccc1NC(=O)CN1CCN(CC(=O)Nc2ccc(F)c(F)c2)CC1` belongs “inactive”. On to `O=S(=O)(Nc1cccc(-c2ccc(N3CCOCC3)nn2)c1)c1cc(C(F)(F)F)ccc1Cl`, for which the result was inactive. For the molecule `CCCCN(CC)CCNc1ncnc2onc(-c3ccc(Cl)cc3)c12`, the “activity change, negative = inhibition” value is inactive: -14.9%. With `O=C(CN1C(=O)C2CCCCN2c2ccc(C(=O)N3CCCC3)cc21)NCc1ccccc1F` (stereo not given), the “activity change, negative = inhibition” value is inactive: 6.11%. On the same count and under the same terms, to `CN(c1ccccc1)C(CNS(=O)(=O)c1ccccc1)c1ccccc1` (stereo not given) belongs inactive: -7.01%; to `O=C(COc1ccccc1Cl)Nc1ccccc1OCc1cc(=O)n2ccccc2n1`, inactive: 3.47%. With `Cc1ccc(N2C(=O)CS(=O)(=O)C23C(=O)N(Cc2ccccc2F)c2ccccc23)cc1Cl` (stereo not given), the “activity change, negative = inhibition” value was inactive: -7.77%. Turning to `CNS(=O)(=O)c1cn(CC(=O)N2CCN(c3ccc(C)cc3C)CC2)cc1S(=O)(=O)NC`, the call was inactive. Regarding `CCCCS(=N)(=O)CCC(N)C(=O)O` (stereo not given), the “activity change, negative = inhibition” value is inactive: 23.5%. Still for that read-out and setting: under `COC(=O)c1sccc1S(=O)(=O)N(CC(=O)NCc1ccc(F)cc1)c1ccc(C)c(C)c1` stands inactive: -1.32%. As to `CNS(=O)(=O)c1cn(CC(=O)Nc2cccc(C(F)(F)F)c2)cc1S(=O)(=O)NC`, the “activity change, negative = inhibition” value is inactive: -4.96%. The same measure, in the same setting: under `Cc1ccc(CN(Cc2ccco2)C(=O)c2cccc(C)c2)cc1` stands inactive: -7.63%. The same measure, in the same setting: to `Cc1cccc(NC(=O)NC2COc3ccccc3C2)c1C` (stereo not given) belongs inactive: 5.01%.

For `COc1ccc(Cc2nnc(C(=O)NCCCN3CCN(c4ccccc4F)CC3)o2)cc1OC`, the “activity change, negative = inhibition” value is inactive: 17.5%.

`CC(C)COc1ccc(Nc2ncnc3ccc(Br)cc23)cc1`: the “activity change, negative = inhibition” value was inactive: -10.5%. Still for that read-out and setting: to `COc1ccc(CNc2nc(-c3ccco3)nn2C(=O)CC(C)C)cc1` belongs inactive: 7.39%; to `COc1ccc(C2Sc3ccccc3N(CCN(C)C)C(=O)C2OC(C)=O)cc1` (stereo not given), inactive: -5.16%. Still for that read-out and setting: under `Cc1cc(S(=O)(=O)n2ccnc2C(C)C)cc([N+](=O)[O-])c1C` stands inactive: 0.627%. In the case of `CCCNc1ccc(-c2nc(-c3ccco3)no2)cc1[N+](=O)[O-]`, the “activity change, negative = inhibition” value was inactive: 1.15%. With `CCc1ccc(CNC(=O)C(CC)n2nc(C)c3c(C)n(-c4ccccc4)nc3c2=O)cc1` (stereo not given), the “activity change, negative = inhibition” value is inactive: -26%. `O=C(Nc1cc(C(F)(F)F)ccc1Cl)c1ccc2c(c1)CCN2S(=O)(=O)c1ccccc1`: the “activity change, negative = inhibition” value was inactive: -6.53%. The same measure, in the same setting: under `CCOC(=O)c1nc(Nc2ccc(Cl)cc2)c2c(C)noc2n1` stands inactive: 1.64%; under `Cc1ccc(Cl)cc1N1CCN(C(=O)c2cn(CC(C)C)c(=O)c3c2c2ccccc2n3C)CC1`, inactive: 5.22%. On the same count and under the same terms, to `Cc1ccc(CCNC(=O)c2ccc(CNS(=O)(=O)c3ccc(C)cc3)cc2)cc1` belongs inactive: -8.24%; to `Cc1cc(C)c(Cn2c(=O)n(-c3ccccc3Cl)c(=O)c3c(C)c(C(=O)N(C)C)sc32)c(C)c1`, inactive: 2.63%. Same read-out and setting: under `CC(=O)c1c(C)oc2ccc(NS(=O)(=O)c3ccc(C(C)C)cc3)cc12` stands inactive: -2.02%.

`COc1cccc(N2CC(NC(=O)C3CCCCC3)CC2=O)c1` (stereo not given): the “activity change, negative = inhibition” value is inactive: -0.276%.

In the case of `COc1ccc(N2CCN(C(=O)c3ccc4c(c3)N(Cc3cc(C)ccc3C)C(=O)c3ccccc3S4=O)CC2)cc1` (stereo not given), the “activity change, negative = inhibition” value is inactive: 8.13%.

Turning to `Cc1cn2c(=O)cc(COc3cccc(NC(=O)c4ccccc4Cl)c3)nc2s1`, the outcome was inactive. On to `CCC(C)(C)C(=O)O[C@H]1C[C@@H](C)C=C2C=C[C@H](C)[C@H](CC[C@@H]3C[C@@H](O)CC(=O)O3)[C@H]21`, for which the “activity change, negative = inhibition” value was inactive: 2.69%.
